# Laboratory results: publication PMC6602471
# The other results are listed elsewhere or left out. At the low end of the ranking, values are background and their order means little.
# Molecular target: T1, ELK1 (UniProt P19419)
# T1 sequence: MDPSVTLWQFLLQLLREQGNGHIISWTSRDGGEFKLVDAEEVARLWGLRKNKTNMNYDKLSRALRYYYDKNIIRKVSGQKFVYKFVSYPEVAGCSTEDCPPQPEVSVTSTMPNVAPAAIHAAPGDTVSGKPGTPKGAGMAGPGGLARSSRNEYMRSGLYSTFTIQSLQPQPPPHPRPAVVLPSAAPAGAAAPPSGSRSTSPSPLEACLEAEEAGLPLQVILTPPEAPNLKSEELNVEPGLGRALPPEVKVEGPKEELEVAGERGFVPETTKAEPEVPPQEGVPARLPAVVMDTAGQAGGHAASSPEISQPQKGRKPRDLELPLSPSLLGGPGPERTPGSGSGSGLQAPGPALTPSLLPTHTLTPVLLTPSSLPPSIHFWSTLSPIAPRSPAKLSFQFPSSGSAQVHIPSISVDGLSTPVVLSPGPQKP
# Experiment: custom PBM
# Settings: custom protein-binding microarray; buffer, salt, pH and temperature not stated; high values mean tight binding; double strand, one strand shown
row,Sequence,binding signal (log fluorescence intensity)
1,CACAATTTTTACAGTCATGTAGCACGCGTAACTCCTGTCTTGATTCGCTTGACGCTGCTG,8.87
2,TAAAGGGAAGACGGGTGTGGTAGTTCCGGGTATTAAGTCTTGATTCGCTTGACGCTGCTG,11.2
3,CGGAAGTGTCCTAAACGTCGGATATCCGGTTCTTCTGTCTTGATTCGCTTGACGCTGCTG,12.4
4,AGTCGGGTAAGGGAATGTAGATCACGTGAATGAAAAGTCTTGATTCGCTTGACGCTGCTG,8.83
5,TACTGACTTCTATATGCGAATGCACATGAATAGACCGTCTTGATTCGCTTGACGCTGCTG,8.96
6,TAAAGGGAAGACGGTTGTGGTAGTTCCGGGTATTAGGTCTTGATTCGCTTGACGCTGCTG,11.3
7,CGGAAGTGTCGTAAACGTCGGATATCCGTTTCTTCTGTCTTGATTCGCTTGACGCTGCTG,11.5
8,CTGGGACTTGACCCAACTCTGCCACGTGGGTGGTTTGTCTTGATTCGCTTGACGCTGCTG,8.94
9,GGAAAAAGGCCCAGGGTAACACCCGAAGTGGGCTTAGTCTTGATTCGCTTGACGCTGCTG,8.95
10,TACTGACTTATATATGCGTATGCACATGAATAGACCGTCTTGATTCGCTTGACGCTGCTG,8.7
11,TCCGGCTACCAGCTCCACCCACTTCAGACCTTGTAGGTCTTGATTCGCTTGACGCTGCTG,8.94
12,CACAATTTTTACAGCAATGTAGCACGCGTAACTCCTGTCTTGATTCGCTTGACGCTGCTG,8.93
13,CAGCATAGGACGTCTTCCCTGAAGCAATTGATAACCGTCTTGATTCGCTTGACGCTGCTG,8.91
14,GGAAAAGGGCCCAGGGTAACACCGGAAGTGGGCTTAGTCTTGATTCGCTTGACGCTGCTG,10.8
15,GCTGCTGCGGTACATACCCCACCGGATGTGACCCCGGTCTTGATTCGCTTGACGCTGCTG,10.3
16,TCCGGCTACAAGCTCCACCCACTTCAGGCCTTGTAGGTCTTGATTCGCTTGACGCTGCTG,8.93
17,GGAAAAAGGCCCAGGGTAACCCCGGAAGTGGGCTTAGTCTTGATTCGCTTGACGCTGCTG,10.5
18,CGGAAGTCTCGTAAACGTCGGATATCCGGTTCTTCTGTCTTGATTCGCTTGACGCTGCTG,12
19,CGGGGACTTGACCCAACTCTGCCACGTGGGTCGTTTGTCTTGATTCGCTTGACGCTGCTG,8.96
20,TGTCGGGTAAGGGAATGTAGATCACGTGAATGATAAGTCTTGATTCGCTTGACGCTGCTG,9.11
21,TCCGGCTACCAGCTCCACCCACTTCAGTCCTTGTAGGTCTTGATTCGCTTGACGCTGCTG,9.06

row,Sequence,binding signal (log fluorescence intensity)
1,CGCAAGTGTCGTAAACGTCGGATATCCGGTTCTTCTGTCTTGATTCGCTTGACGCTGCTG,12.6
2,CTGGGACTTGACCCAACTCTGCCATGTGGGTCGTTTGTCTTGATTCGCTTGACGCTGCTG,8.78
3,GTGTATAGGATCCCAGCCAACACACGTGTTAAAATGGTCTTGATTCGCTTGACGCTGCTG,8.95
4,CGGAAGTGTCGTAAGCGTCGGATATCCGGTTCTTCTGTCTTGATTCGCTTGACGCTGCTG,12.4
5,TACTGACTTATATATGCGAATGCATATGAATAGACCGTCTTGATTCGCTTGACGCTGCTG,8.91
6,CACAATTTTTACAGTAATGTGGCACGCGTAACTCCTGTCTTGATTCGCTTGACGCTGCTG,8.9
7,TACTGACTTATATATGCGAATGCACATGAATAGACCGTCTTGATTCGCTTGACGCTGCTG,8.91
8,TACTGACTAATATATGCGAATGCACATGAATAGACCGTCTTGATTCGCTTGACGCTGCTG,8.92
9,TCCGGCTACCAGCTCCACCCACTTCAGGCCTTGGAGGTCTTGATTCGCTTGACGCTGCTG,8.82
10,CGGAAGTGTCGTAAACGTCGGATATCCGGTTCTTCTGTCTTGATTCGCTTGACGCTGCTG,12.4
11,TGTCGGGTAAGGGAATGTAGATCACGTGCATGAAAAGTCTTGATTCGCTTGACGCTGCTG,9.02
12,TACTGACTTATATATTCGAATGCACATGAATAGACCGTCTTGATTCGCTTGACGCTGCTG,8.77
13,GTGTATATGATCCCATCCAACACACGTGTTAAAATGGTCTTGATTCGCTTGACGCTGCTG,9.02
14,GATTAATTTCTGCCCTTATTGGCACGTGCCATAACAGTCTTGATTCGCTTGACGCTGCTG,8.85
15,CTGGGACTTGACCCAACTCTGCCACGTGGGTAGTTTGTCTTGATTCGCTTGACGCTGCTG,8.8
16,TGTCGGGTAAGGGAATGTAGATCACGGGAATGAAAAGTCTTGATTCGCTTGACGCTGCTG,8.9
17,GTGTATAGGATCCCATCCAAAACACGTGTTAAAATGGTCTTGATTCGCTTGACGCTGCTG,8.87
18,CACAATTTTTACAGTAATGTAGCACGCGTAACTTCTGTCTTGATTCGCTTGACGCTGCTG,8.64
19,GCTGCTGCGGTGCATACCCCACCGGATGTGACACCGGTCTTGATTCGCTTGACGCTGCTG,10.2
20,GGAAAAAGGCCCAGGGTAACACCGGAAGTGGGCTAAGTCTTGATTCGCTTGACGCTGCTG,10.8
21,CGGAAGTGTCGTAAACGTCGGGTATCCGGTTCTTCTGTCTTGATTCGCTTGACGCTGCTG,11.2

row,Sequence,binding signal (log fluorescence intensity)
1,CACCATAGGACTTCTTCCCTGAAGCAATTGATAACCGTCTTGATTCGCTTGACGCTGCTG,8.86
2,CAGCATTGGACTTCTTCCCTGAAGCAATTGATAACCGTCTTGATTCGCTTGACGCTGCTG,8.9
3,CTGGGACTTGACCCAACTCTGCCCCGTGGGTCGTTTGTCTTGATTCGCTTGACGCTGCTG,8.87
4,CTGGGACTTGACCCAAGTCTGCCACGTGGGTCGTTTGTCTTGATTCGCTTGACGCTGCTG,8.8
5,GAAAAAAGGCCCAGGGTAACACCGGAAGTGGGCTTAGTCTTGATTCGCTTGACGCTGCTG,11
6,CAGCATAGGACTTCTTCACTGAAGCAATTGATAACCGTCTTGATTCGCTTGACGCTGCTG,8.76
7,GGAAAAAGGCCCAGGGTAACACCGGAAGTGGTCTTAGTCTTGATTCGCTTGACGCTGCTG,10.9
8,TAAAGGGAAGACGGTTGTGGTAGTTCCGGGGATTAAGTCTTGATTCGCTTGACGCTGCTG,10.9
9,GCCGCTGCGGTGCATACCCCACCGGATGTGACCCCGGTCTTGATTCGCTTGACGCTGCTG,10.1
10,TAAAGGGAAGACGGTTGTGGTAGTTCCGAGTATTAAGTCTTGATTCGCTTGACGCTGCTG,9.53
11,CTGGGACTTGACCCAACTCTGCCACGTGAGTCGTTTGTCTTGATTCGCTTGACGCTGCTG,9
12,CGGAAGTGTCGCAAACGTCGGATATCCGGTTCTTCTGTCTTGATTCGCTTGACGCTGCTG,12.5
13,CAGCATAGGTCTTCTTCCCTGAAGCAATTGATAACCGTCTTGATTCGCTTGACGCTGCTG,8.99
14,GGAAAAAGGCCCAGGGTAGCACCGGAAGTGGGCTTAGTCTTGATTCGCTTGACGCTGCTG,10.8
15,CACAATTTTTACAGTAATGTAGTACGCGTAACTCCTGTCTTGATTCGCTTGACGCTGCTG,9.01
16,CGGAAGCGTCGTAAACGTCGGATATCCGGTTCTTCTGTCTTGATTCGCTTGACGCTGCTG,12.5
17,CACAATTTTTACAATAATGTAGCACGCGTAACTCCTGTCTTGATTCGCTTGACGCTGCTG,8.88
18,TCCGGCTACCAGCTCCCCCCACTTCAGGCCTTGTAGGTCTTGATTCGCTTGACGCTGCTG,8.72
19,GATTAATTTCTGCCCTTATTCGCACGTGCCATACCAGTCTTGATTCGCTTGACGCTGCTG,8.97
20,GCTGCGGCGGTGCATACCCCACCGGATGTGACCCCGGTCTTGATTCGCTTGACGCTGCTG,10.4
21,CACAATTTTTACAGTAATGTACCACGCGTAACTCCTGTCTTGATTCGCTTGACGCTGCTG,8.89

row,Sequence,binding signal (log fluorescence intensity)
1,GCTGCTGCGGTGCATGCCCCACCGGATGTGACCCCGGTCTTGATTCGCTTGACGCTGCTG,10.2
2,GCGGCTGCGGTGCATACCCCACCGGATGTGACCCCGGTCTTGATTCGCTTGACGCTGCTG,10
3,TAAAGGTAAGACGGTTGTGGTAGTTCCGGGTATTAAGTCTTGATTCGCTTGACGCTGCTG,11.2
4,GATTAATTTCTGCCCTTCTTCGCACGTGCCATAACAGTCTTGATTCGCTTGACGCTGCTG,8.75
5,CTGGGACTTGACCCAACTCTGCCACGTGGGTCGGTTGTCTTGATTCGCTTGACGCTGCTG,8.84
6,GGAAAAAGGACCAGGGTAACACCGGAAGTGGGCTTAGTCTTGATTCGCTTGACGCTGCTG,11
7,CTGGGACTTGACCCATCTCTGCCACGTGGGTCGTTTGTCTTGATTCGCTTGACGCTGCTG,8.88
8,GTGTATAGGATGCCATCCAACACACGTGTTAAAATGGTCTTGATTCGCTTGACGCTGCTG,8.94
9,CACAATTTTTACAGTAATTTAGCACGCGTAACTCCTGTCTTGATTCGCTTGACGCTGCTG,8.93
10,GGAAAAAGGCCCAGGGTAACACGGGAAGTGGGCTTAGTCTTGATTCGCTTGACGCTGCTG,9.06
11,GATTAATTTCTACCCTTATTCGCACGTGCCATAACAGTCTTGATTCGCTTGACGCTGCTG,8.75
12,GGAAAAAGGCCCAGGGTAACACCGGAAGTGGGCGTAGTCTTGATTCGCTTGACGCTGCTG,10.9
13,GTGTATAGGATCCCATACAACACACGTGTTAAAATGGTCTTGATTCGCTTGACGCTGCTG,8.93
14,GAAAGGGAAGACGGTTGTGGTAGTTCCGGGTATTAAGTCTTGATTCGCTTGACGCTGCTG,11.3
15,TCTGCTGCGGTGCATACCCCACCGGATGTGACCCCGGTCTTGATTCGCTTGACGCTGCTG,10.1
16,CAGCATAGGACTTCTTCCCTGAAGCAATTGAGAACCGTCTTGATTCGCTTGACGCTGCTG,8.77
17,CAGCATAGGACTTCTTCCCAGAAGCAATTGATAACCGTCTTGATTCGCTTGACGCTGCTG,8.89
18,CTGGGACTTGAGCCAACTCTGCCACGTGGGTCGTTTGTCTTGATTCGCTTGACGCTGCTG,8.81
